Laboratory results from the antibiotic and cytotoxicity screens of Wong et al. (2023).
The list shows a part of the results.

Tests used:
HSkMC = human skeletal muscle cells; assay: cytotoxicity call (relative viability < 0.9); settings: 10 µM
HepG2 = assay: cytotoxicity call (relative viability < 0.9); settings: 10 µM
S. aureus RN4220 = assay: growth inhibition call (relative growth <= 0.2); settings: 50 µM

Compound | cytotoxicity call (HSkMC) | cytotoxicity call (HepG2) | growth inhibition call (S. aureus RN4220)
CNC(=O)Oc1ccc2c(c1)C1(C)CCN(C)C1N2C.O=C(O)c1ccccc1O (stereo unspecified) | inactive | active | inactive
CC(C)(C)OC(=O)N[C@H]1[C@@H]2CNC[C@@H]21 | inactive | inactive | inactive
Cc1ccc2nc(CCN)[nH]c2c1 | inactive | inactive | inactive
CC(=O)O[C@H]1C[C@H](O[C@H]2[C@@H](O)C[C@H](O[C@H]3[C@@H](O)C[C@H](O[C@H]4CC[C@@]5(C)[C@@H](CC[C@H]6[C@@H]5C[C@@H](O)[C@]5(C)[C@@H](C7=CC(=O)OC7)CC[C@]65O)C4)O[C@@H]3C)O[C@@H]2C)O[C@H](C)[C@H]1O[C@@H]1O[C@H](CO)[C@@H](O)[C@H](O)[C@H]1O | active | active | inactive
C[C@@H]1C(=O)NC[C@H]2CN(CC3CC3)C[C@@H]21 | inactive | inactive | inactive
COc1cc2c(cc1O)CC1c3c(cc(O)c(OC)c3-2)CCN1C (stereo unspecified) | inactive | inactive | inactive
C1COC2(CN1)CNC2 | inactive | inactive | inactive
CC=C(C)C(=O)OC1CC(OC(C)=O)C2(C(=O)OC)COC3C2C12COC(O)(C(=O)OC)C2C(C)(C12OC1(C)C1CC2OC2OC=CC21O)C3O (stereo unspecified) | inactive | inactive | inactive
Cc1nccc2c1[nH]c1cc(O)ccc12 [listing 1 of 2 here] | inactive | active | inactive
C[C@@H](N)[C@@H](O)c1ccccc1 | inactive | inactive | inactive
O=C1N[C@@H]2C(=C[C@H](O)[C@@H](O)[C@H]2O)c2cc3c(c(O)c21)OCO3 | active | active | inactive
COC(=O)C[C@@H]1CC[C@@H]2NC[C@H](O)COC[C@H]2O1 | inactive | inactive | inactive
NC[C@H](CC(=O)O)c1ccc(Cl)cc1 | inactive | inactive | inactive
O=[N+]([O-])c1cc([As](=O)(O)O)ccc1O | inactive | inactive | inactive
N[C@H]1C[C@@H]1c1ccccc1 | inactive | inactive | inactive
Cn1ccnc1C(=O)N[C@H]1CN[C@@H]2CCCO[C@@H]12 | inactive | inactive | inactive
O=C(O)CCCc1ccc(N(CCCl)CCCl)cc1 | inactive | inactive | inactive
CN1[C@@H]2CC[C@H]1CNC(=O)C2 | inactive | inactive | inactive
CC(C)Oc1ccccc1CCN | inactive | inactive | inactive
CC1(C)C(O)CC(=O)C2(C)C1CC(=O)C1(C)C2CCC2(C)C(c3ccoc3)OC(=O)C3OC321 (stereo unspecified) | inactive | inactive | inactive
FC(F)(F)c1nnc(N2CCNCC2)s1 | inactive | inactive | inactive

Compound | cytotoxicity call (HSkMC) | cytotoxicity call (HepG2) | growth inhibition call (S. aureus RN4220)
CNc1ccccc1C(=O)O | inactive | inactive | inactive
Cc1cc(CCN)on1 | inactive | inactive | inactive
COC(=O)[C@H]1[C@H](CO)[C@H]2Cn3c(cccc3=O)[C@@H]1N2C(=O)C1CC1 | inactive | inactive | inactive
CC(C)N(C)C[C@H]1CO[C@]2(CNCCOC2)C1 | inactive | inactive | inactive
Cc1nccc2c1[nH]c1cc(O)ccc12 [listing 2 of 2 here] | inactive | inactive | inactive
C1CCN2C(C3N4CCCCN34)N2C1 (stereo unspecified) | inactive | inactive | inactive
COc1ccc2cc(CCN)c(=O)[nH]c2c1 | inactive | inactive | inactive
Cc1scc(CCN)c1C | inactive | inactive | inactive
CC(=O)O.Cc1cc2c(C(C)C)c(O)c(O)c(C=O)c2c(O)c1-c1c(C)cc2c(C(C)C)c(O)c(O)c(C=O)c2c1O | inactive | inactive | inactive
CC(=O)O[C@H]1C[C@@H]2CC[C@@H]3[C@H](CC[C@@]4(C)[C@H]3C[C@H]([N+]3(C)CCCCC3)[C@@H]4OC(C)=O)[C@@]2(C)C[C@@H]1[N+]1(C)CCCCC1 | inactive | inactive | inactive
N#CC(OC1OC(COC2OC(CO)C(O)C(O)C2O)C(O)C(O)C1O)c1ccccc1 (stereo unspecified) | inactive | inactive | inactive
C[C@@H]1[C@H](O)[C@@H](C)/C=C\C=C/CC\C=C/C=C\C=C/C=C\[C@H](O[C@@H]2O[C@H](C)[C@@H](O)[C@H](N)[C@@H]2O)C[C@@H]2O[C@](O)(C[C@@H](O)[C@H](O)CC[C@@H](O)C[C@@H](O)C[C@@H](O)CC(=O)O[C@H]1C)C[C@H](O)[C@H]2C(=O)O | inactive | inactive | inactive
CCN1C[C@@]2(C)CC[C@H](OC)C34[C@@H]2[C@H](O)[C@]2(OCO[C@@]25C[C@H](OC)[C@H]2C[C@]3(O)[C@@H]5[C@H]2O)[C@@H]14 | inactive | inactive | inactive
Cc1cccc(CN2C[C@H]3OCCN(C)[C@H]3C2)n1 | inactive | inactive | inactive
CCOC1OC2OC3(C)CCC4C(C)CCC(C1C)C24OO3 (stereo unspecified) | inactive | active | inactive
Cc1cccc(N2CCNCC2)n1 | inactive | inactive | inactive
CC(C)c1cccc2c1OCC[C@H](N)[C@@H]2O | inactive | inactive | inactive
COC12CC(COC(=O)c3cncc(Br)c3)CN(C)C1Cc1cn(C)c3cccc2c13 (stereo unspecified) | inactive | active | inactive
Cc1ccc(OC(=O)N(C)C[C@@H]2OCc3ccccc3-c3c(n(C)c4ccccc34)C(=O)N([C@H](C)CO)C[C@@H]2C)cc1 | inactive | inactive | inactive
c1cn(C[C@H]2CC[C@H]3NCCO[C@@H]23)cn1 | inactive | inactive | inactive
C[N+]1([O-])C2CCC1CC(OC(=O)C(CO)c1ccccc1)C2 (stereo unspecified) | inactive | inactive | inactive

Compound | cytotoxicity call (HSkMC) | cytotoxicity call (HepG2) | growth inhibition call (S. aureus RN4220)
Br.CC(Cc1ccc(O)cc1)NCC(O)c1cc(O)cc(O)c1 (stereo unspecified) | inactive | inactive | inactive
COC(=O)[C@]1(Cc2ccccc2N=[N+]=[N-])N=C(c2ccc(OCCCO)cc2)O[C@@H]1c1ccccc1N=[N+]=[N-] | active | active | inactive
OC[C@@H]1[C@@H](O)[C@H](O)[C@H]2[C@@H](O)CCN21 | inactive | inactive | inactive
CS(=O)(=O)C1C[C@H]2CC[C@@H](C1)N2 (stereo partly specified) | inactive | inactive | inactive
CCOc1cc(C=O)ccc1O | inactive | inactive | inactive
CC(C)=CCCC1(C)C=Cc2c(O)c3c(c(CC=C(C)C)c2O1)OC12C(=CC4CC1C(C)(C)OC2(CC=C(C)C(=O)O)C4O)C3=O (stereo unspecified) | active | inactive | inactive
NC[C@@H]1CCCN2CCCC[C@H]12 | inactive | inactive | inactive
CCOP(=S)(OCC)SCSP(=S)(OCC)OCC | inactive | inactive | inactive
Cc1cccc([C@H](CN)N(C)C)c1 | inactive | inactive | inactive
O.O.O.O=C([O-])C1[O][Sb]2[O]C(=O)C([O]2)C(C(=O)[O-])[O][Sb]2[O]C(=O)C1[O]2.[K+].[K+] (stereo unspecified) | inactive | active | inactive
Cl.OC1CCCCC1N1CCC(c2ccccc2)CC1 (stereo unspecified) | inactive | inactive | inactive
Cc1cc(C)nc(NC2=NCCN2)n1 | inactive | inactive | inactive
CCCC(C)C1(CC)C(=O)N=C([S-])NC1=O.[Na+] (stereo unspecified) | inactive | inactive | inactive
O=C1C=C2C=CC3CC2(O1)C1CCCCN31 (stereo unspecified) | inactive | active | inactive
CNC[C@@H](O)c1ccc(O)c(OC)c1 | inactive | inactive | inactive
NC(=O)[C@H]1CNC(=O)C1 | inactive | inactive | inactive
O=C(O)CNCP(=O)(O)O | inactive | inactive | inactive
CO[C@@H]1C=C[C@@H]2[C@H]1N2CCCO (stereo partly specified) | inactive | inactive | inactive
Cc1cc(N(C)C)ccc1C[C@@H](C)N | inactive | inactive | inactive
COc1ccc(OC(=O)N(C)C[C@@H]2OCc3ccccc3-c3c(n(C)c4ccccc34)C(=O)N([C@H](C)CO)C[C@@H]2C)cc1 | inactive | inactive | inactive
NCCc1c[nH]c2ccccc12 | inactive | inactive | inactive

Compound | cytotoxicity call (HSkMC) | cytotoxicity call (HepG2) | growth inhibition call (S. aureus RN4220)
COS(C)(=O)=O | inactive | inactive | inactive
C=CCC1(O)CCC2C3CCC4=CC(=O)CCC4=C3C=CC21C (stereo unspecified) | inactive | inactive | inactive
COc1ccn(C)c(=O)c1C#N | inactive | inactive | inactive
Cc1o[nH]c(=O)c1C[C@H](N)C(=O)O | inactive | inactive | inactive
N[C@]1(C(=O)O)CC[C@@H](C(=O)O)C1 | inactive | inactive | inactive
CC[C@@H](C)[C@H]1NC(=O)C(C(C)=O)=C1O | inactive | inactive | inactive
O=C1CCCC2C3CC(CN12)C1CCCCN1C3.[O-][Cl+3]([O-])([O-])O (stereo unspecified) | inactive | inactive | inactive
[N-]=[N+]=NCc1ccccc1C[C@]1(C(=O)NCc2ccccc2)N=C(c2ccc(OCCCO)cc2)O[C@H]1c1ccccc1N=[N+]=[N-] | inactive | active | inactive
NCCc1ccncc1 | inactive | inactive | inactive
C=CCc1ccc2c(c1)OCO2 | inactive | active | inactive
C#CC(C)(O)CC (stereo unspecified) | inactive | inactive | inactive
C=C(C)[C@H]1CN[C@H](C(=O)O)[C@H]1CC(=O)O | inactive | inactive | inactive
NCC1(c2ccc(Cl)cc2)CC1 | inactive | inactive | inactive
CC(C)(CN)CNc1ccc([N+](=O)[O-])c2cccnc12 | inactive | active | inactive
C=C(C)C1Cc2c(ccc3c2OC2COc4cc(OC)c(OC)cc4C2C3=O)O1 (stereo unspecified) | inactive | active | inactive
Nc1ncccc1CN1CC[C@]2(CC(=O)NC2=O)C1 | inactive | inactive | inactive
O=C(O)[C@H]1C[C@H]2CCCCN2C1 | inactive | inactive | inactive
CN1CCOCC12CCN(c1ncccn1)CC2 | inactive | inactive | inactive
C[C@]12CC/C(=N\OCCN)C[C@@H]1C(=O)C[C@@H]1[C@@H]2CC[C@]2(C)C(=O)CC[C@@H]12 | active | inactive | inactive
